# Assay results as given in PubChem BioAssay AID624418 (National Center for Advancing Translational Sciences (NCATS), 2012).
# The whole screen tested about 410,000 compounds, of which about 530 (0.13%) were called active. This list was built around the results that the source calls inconclusive (neither active nor inactive); the mix of calls is not that of the screen. Calls follow the shape of the dose curve; as a rule, active = well fitted inhibition curve with a large enough effect; inconclusive = small, poorly fitted or top-dose-only effect, or another doubt; inactive = no such curve, though single readings can be large or run the other way. Where the call is inconclusive, the potency comes from a doubtful curve fit.
# Assay: qHTS of GLP-1 Receptor Inverse Agonists: Cytotox Screen
# Details: HEK293 cAMP-luciferase reporter cells, luminescence, 24 h; activity change, negative = inhibition: at 38.3 µM (top of the series) unless noted
# How it was run: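 Compound-treated cells are incubated 24 hr at 37 deg C under 5% CO2 after a 12 hour attachment period, then luciferase detection reagent is added and luminescence is measured following 12 min at room temperature; lowered signal indicates toxicity.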
# % is scaled to controls: 0 for no effect and ±100 for the full control effect; potency is read from the fitted curve at half-maximal effect.
SMILES,"activity change, negative = inhibition",Potency
CC(C)(C)OC(=O)N1CCC(c2c(C(=O)NCCN3CCOCC3)cnn2-c2ccc(F)cc2F)CC1,inactive: -9.57%,
Cc1ccc(-n2cc(-c3ccccc3)c3c(N4CCN(C)CC4)ncnc32)cc1,,"inconclusive: 11.2 µM [inhibitor, partial curve, poor fit]"
c1ccc(N2CCN(Cc3ccsc3)CC2)nc1,,"inconclusive: 28.2 µM [inhibitor, single point]"
COc1ccc(N2C(=O)CC(Sc3nnnn3-c3ccc(F)cc3)C2=O)cc1 (configuration not stated),,"inconclusive: 20 µM [inhibitor, single point]"
CC(=O)c1cccc(NS(=O)(=O)c2c(C(=O)N3CCOCC3)c(C)n(C)c2C)c1,inactive: -11.4%,
c1ccc2c(c1)oc1c(-c3ccc4nccn4c3)cccc12,inactive: -17%,
CCCCCCOc1ccc(NC(=O)CC2C(=O)N(CC)C(=S)N2Cc2ccco2)cc1 (configuration not stated),,"inconclusive: 12.6 µM [inhibitor, partial curve, poor fit]"
COc1ccc(N2CCN(C(c3cccc(OC)c3OC)c3nnnn3C3CCCC3)CC2)cc1 (configuration not stated),inactive: -8.54%,
COc1cccc(/C=C/c2nc3ccccc3c(=O)n2-c2ccc(C)c(C)c2)c1OC,inactive: -5.08%,
COc1ccc(-c2nnc(SCC(=O)Nc3ccc(C)c(Cl)c3)nc2-c2ccc(OC)c(OC)c2)cc1OC,inactive: -15.1%,
O=c1oc2ccccc2c(Nc2cc3ccccc3cc2O)c1[N+](=O)[O-],,"inconclusive: 11.2 µM [inhibitor, single point]"
C=CCn1c(-c2cc3cccc(OC)c3o2)n[nH]c1=S,,"inconclusive: 31.6 µM [inhibitor, single point]"
CC(C)CC(N)c1csc(NC(=O)Nc2ccccc2C(C)(C)C)n1 (configuration not stated),,"inconclusive: 28.2 µM [inhibitor, single point]"
CC(=O)Nc1ccc2nc(-c3ccco3)[nH]c2c1,,"inconclusive: 28.2 µM [inhibitor, single point]"
Cc1cc(-c2n[nH]c(=S)n2/N=C/C(Cl)=C/c2ccccc2)n[nH]1,,"inconclusive: 31.6 µM [inhibitor, single point]"
COc1ccc(/C=N/n2c(SC)nnc2-c2ccccc2)cc1C,,"inconclusive: 7.94 µM [inhibitor, partial curve, poor fit]"
Cc1cccnc1C(NC(=O)C1CCN(Cc2ccc(Oc3ccccc3)cc2)CC1)c1ccccc1 (configuration not stated),,"inconclusive: 11.2 µM [inhibitor, single point]"
Cc1ccccc1CNC(=O)Cc1csc2ccccc12,inactive: -3.84%,
CCc1nc2c(OCc3ccc(C(F)(F)F)cc3)cccn2c1N(C)C(=O)c1ccc(C)cc1,inactive: -13.1%,
CCOc1ccccc1NC(=O)CSc1nc2ccccc2nc1N1CCCC1,inactive: 2.67%,
C[C@@H](O)C#Cc1ccc2c(c1)O[C@H](CN(C)C(=O)Nc1ccccc1)[C@@H](C)CN([C@@H](C)CO)S2(=O)=O,,"inconclusive: 28.2 µM [inhibitor, single point]"

SMILES,"activity change, negative = inhibition",Potency
O=C(N[C@@H]1CCC(=O)N(CC[C@H](Sc2ccc(Br)cc2)c2ccccc2)CC1)OCc1ccccc1,inactive: -22.1%,
CCOC(=O)C1=C(NC(=S)NC(=O)c2ccccc2)c2ccccc2CC1C(C)C (configuration not stated),,"inconclusive: 11.2 µM [inhibitor, partial curve, poor fit]"
O=C1Nc2ccc(Br)cc2/C1=C/C(=O)c1ccccc1,,"inconclusive: 10 µM [inhibitor, partial curve, poor fit]"
O=C(CN1CCN(c2ccc(O)cc2)CC1)NCC(=O)Nc1ccc(F)c(F)c1F,,"inconclusive: 1 µM [inhibitor, full curve, poor fit]"
S=C1Nc2ccccc2CS1,,"inconclusive: 12.6 µM [inhibitor, single point]"
CCN(CC)c1ccc(/C=N/Nc2nc3ccccc3[nH]2)c(O)c1,,"inconclusive: 3.16 µM [inhibitor, full curve, poor fit]"
CCOc1ccc(Nc2nc(N)nc(CCl)n2)cc1,,"inconclusive: 5.62 µM [inhibitor, partial curve]"
C/C(=C\c1ccccc1)C(=O)Nc1ccc(Cl)cn1,inactive: 8.41%,
CC(C)C[C@H](NC(=O)c1[nH]cnc1C(=O)N[C@@H](Cc1ccccc1)C(=O)OCc1ccccc1)C(=O)OCc1ccccc1,,"inconclusive: 0.501 µM [inhibitor, full curve, poor fit]"
CCc1ccccc1NC(=O)COC(=O)c1c(C)nsc1NC,inactive: -0.24%,
COc1ccc(CN2C(=S)NC(C)(C)CC2(C)O)cc1 (configuration not stated),,"inconclusive: 11.2 µM [inhibitor, partial curve, poor fit]"
Cc1ccc(C(=O)NNC(=O)/C=C\C(=O)O)cc1,,"inconclusive: 31.6 µM [inhibitor, single point]"
CC1CCN(S(=O)(=O)c2ccc(NC(=O)CN3CCN(c4ccccc4)CC3)cc2)CC1,,"inconclusive: 0.501 µM [inhibitor, full curve, poor fit]"
CCC(C)(C)c1ccc(OCCCC[n+]2ccc(C)cc2)c(C(C)(C)CC)c1,,"inconclusive: 7.94 µM [inhibitor, partial curve, poor fit]"
Cc1ccc(-c2cc(C)nc3ncnn23)cc1,inactive: 3.99%,
O=c1oc(-c2ccccc2)cc(Cl)c1Cl,,"inconclusive: 28.2 µM [inhibitor, single point]"
O=[N+]([O-])c1ccc(N/N=C/c2cccc(O)c2O)c(S(=O)(=O)N2CCOCC2)c1,,"inconclusive: 10 µM [inhibitor, partial curve, poor fit]"
O=C(N/N=C/c1cccc2nccnc12)c1ccccc1O,,"inconclusive: 11.2 µM [inhibitor, partial curve, poor fit]"
O=C(c1ccc(C#Cc2ccccc2)o1)N1CCN(c2ccccn2)CC1,,"inconclusive: 28.2 µM [inhibitor, single point]"
COc1ccc2cc1Oc1ccc(cc1)C[C@H]1c3cc(c(OC)cc3CCN1C)Oc1c(OC)c(OC)cc3c1[C@@H](C2)N(C)CC3,,"inconclusive: 12.6 µM [inhibitor, single point]"
CC(/C=N/NC(=O)CSc1nc2ccccc2n1C)=C\c1ccco1,,"inconclusive: 10 µM [inhibitor, partial curve]"
